Results taken from PubChem BioAssay AID360 (National Center for Advancing Translational Sciences (NCATS), 2006).
In all, about 48,000 compounds went through this assay and about 550 (1.1%) were called active. Not shown: some 4% with an inconclusive outcome. Rule as the data show it: active = potency below about 15 µM; inconclusive = mostly about 16 µM to 33 µM; inactive = weaker than that. Some of the results follow.

Molecular target: Lysosomal acid glucosylceramidase (Homo sapiens) (UniProt P04062)
Chain of UniProt P04062 (P04062 whole entry, looked up): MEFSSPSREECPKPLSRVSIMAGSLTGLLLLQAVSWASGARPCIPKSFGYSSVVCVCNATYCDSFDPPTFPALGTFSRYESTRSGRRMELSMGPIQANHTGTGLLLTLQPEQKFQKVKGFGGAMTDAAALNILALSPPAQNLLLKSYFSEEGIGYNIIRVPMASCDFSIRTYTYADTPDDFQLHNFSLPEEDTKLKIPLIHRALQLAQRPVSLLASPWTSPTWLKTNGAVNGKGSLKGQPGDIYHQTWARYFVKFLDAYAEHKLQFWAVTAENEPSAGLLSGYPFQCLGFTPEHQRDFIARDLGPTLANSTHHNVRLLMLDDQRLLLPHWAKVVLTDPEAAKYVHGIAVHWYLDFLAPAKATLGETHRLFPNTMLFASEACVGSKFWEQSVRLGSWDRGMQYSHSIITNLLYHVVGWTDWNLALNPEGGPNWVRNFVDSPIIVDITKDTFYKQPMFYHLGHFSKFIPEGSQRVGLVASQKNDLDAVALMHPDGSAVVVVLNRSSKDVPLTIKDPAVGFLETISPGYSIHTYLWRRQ
Experiment: Glucocerebrosidase;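 also: the screen sought inhibitors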
Conditions: purified enzyme, resorufin glucoside fluorescence (screen aimed at inhibitors), 20 min; series mostly up to 77 µM
Method in brief: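 Wild-type enzyme at 0.2 nM final in 50mM citric acid/KH2PO4, 10mM sodium taurocholate, 0.01% tween-20, pH 5.9, with resorufin beta-D-glucopyranoside at 30 uM final. Compounds titrated, 20 min at RT, red fluorescence read; AC50 from titration.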
Potency is read from the fitted curve at half-maximal effect.

Potency, inactive:
Cc1nc2sc(-c3ccccc3)cc2c(=O)n1-n1cccc1 > 76.9 µM, O=C(Cn1[nH]c(=O)c2ccccc2c1=O)OCC(=O)N1CCc2ccccc2C1 > 76.9 µM, COc1ccc(-c2nnc(SCC(=O)Nc3cc(C)on3)n2C)cc1OC > 76.9 µM, CC(=O)Nc1cccc(OC(=O)c2ccoc2C)c1 > 76.9 µM, O=C(Nc1ccccc1N1CCCCC1)c1ncoc1-c1ccc(F)cc1, Cc1ccccc1NC(=O)Cc1nnc(SCC(=O)N2CCN(c3ccccc3)CC2)n1C > 76.9 µM, COc1ccc(CCNC(=O)CNCC2CCCO2)cc1OC (stereo not given) > 76.9 µM, COc1cc(OC)cc(C(=O)Nc2ccc(S(=O)(=O)N(C)C)cc2)c1 > 76.9 µM, c1ccc(CNc2c3c(nc4ncnn24)CCCC3)nc1 > 76.9 µM, CC(=O)N(C)C1(c2nnnn2CCOC(=O)Nc2ccc(Cl)cc2)CCCCC1 > 76.9 µM, CN1CCCCc2c1nc1c(c2N)CCCC1 > 76.9 µM, Cc1ccc2c(c1)N(CC(=O)NC1CCCc3ccccc31)C(=O)CO2 (stereo not given) > 76.9 µM, COCCN(C(=O)CCCC(=O)Nc1ccccn1)C(C(=O)NC1CCCCC1)c1ccc(C)cc1 (stereo not given) > 76.9 µM, O=C(Nc1cccc(NC(=O)c2nccc3ccccc23)c1)c1ccco1 > 76.9 µM, COC(=O)c1cn(C(C)C(=O)NCc2ccco2)c2ccccc12 (stereo not given) > 76.9 µM, CCOC(=O)C(NC(=O)CC)(Nc1ccc(S(=O)(=O)Nc2onc(C)c2C)cc1)C(F)(F)F (stereo not given) > 76.9 µM, CC(C)OC(=O)CSc1nnc(-c2cccnc2)n1Cc1ccccc1 > 76.9 µM, CCCc1[nH]nc2c1C(c1ccc(O)c(OC)c1)C(C#N)=C(N)O2 (stereo not given) > 76.9 µM, COc1cc(-c2nnc(SCC(=O)N(Cc3ccccc3)C(C)(C)C)o2)cc(OC)c1OC > 76.9 µM, COC(=O)c1ccccc1NC(=O)Cn1cnc2c(cnn2-c2ccccc2)c1=O > 76.9 µM, CC(NS(=O)(=O)c1ccc(OCC(=O)N2CCOCC2)cc1)c1ccccc1 (stereo not given) > 76.9 µM, COc1ccc(C(=O)CSc2nnnn2Cc2ccccc2)cc1 > 76.9 µM, CCc1ccc(NC(=O)CS(=O)CC(=O)NC(C)CCc2ccco2)cc1 (stereo not given) > 76.9 µM, O=C(O)CSCc1cnn(-c2ccccc2)c1-n1cccc1 > 76.9 µM, COc1cc(NC(=O)C23CC4CC(C2)CC(n2nnc(C)n2)(C4)C3)c(OC)cc1Cl > 76.9 µM, Cc1nc(C)c2c(=O)cc(-c3ccccc3)[nH]c2n1 > 76.9 µM, O=C(C1CCN(S(=O)(=O)N2CCOCC2)CC1)N1CCN(Cc2ccccc2)CC1 > 76.9 µM, COc1ccc(Oc2ncnc3c2ncn3Cc2ccccc2)cc1 > 76.9 µM, C=CCn1c(SCC(=O)NCc2ccc3c(c2)OCO3)nnc1C1COc2ccccc2O1 (stereo not given) > 76.9 µM, O=C(CN1CCN(c2ccccn2)CC1)Nc1cc(C(F)(F)F)ccc1Cl > 76.9 µM, CC(=O)NC(Cc1c[nH]c2ccccc12)C(=O)N1CCc2ccccc2C1 (stereo not given) > 76.9 µM, COCCNC(=O)c1ccc(CS(=O)(=O)c2ccc(Cl)cc2)o1 > 76.9 µM, O=C(CSc1nnc(Cc2ccccc2)n1-c1ccccc1)N1CCOCC1 > 76.9 µM, CC(CN1CCOCC1)OC(=O)c1ccc(Br)cc1 (stereo not given) > 76.9 µM, O=S(=O)(c1ccc(N2CCN(S(=O)(=O)c3ccc4c(c3)OCCO4)CC2)nc1)N1CCCC1 > 76.9 µM, Cc1nnc2c3cnn(-c4ccc(Cl)cc4)c3ncn12 > 76.9 µM, CC(=O)Nc1ccc(S(=O)(=O)n2cnc(C)c2)cc1 > 76.9 µM, C/C(Cl)=C\Cn1c(=O)c2c(nc3n2CCS3)n(C)c1=O > 76.9 µM, Cc1ccc(CNC(=O)C2c3ccccc3C(=O)N3CCc4ccccc4C23)o1 (stereo not given) > 76.9 µM, CSCCC(NS(=O)(=O)c1cccs1)C(=O)NCc1cccs1 (stereo not given) > 76.9 µM, COc1ccc(N2CCN(C(=O)CSc3nnc4nc(C)cc(C)n34)CC2)cc1 > 76.9 µM, O=C(CSc1nnc(-c2ccc(Cl)cc2)o1)N1CCN(c2ccccc2)CC1 > 76.9 µM, Cn1c(SCC(=O)Nc2ccc3cn[nH]c3c2)nnc1-c1cccs1 > 76.9 µM, CCC(=O)n1nc(NCc2ccccc2OC)nc1NCc1ccccc1OC > 76.9 µM, CN1CC(=O)N(C)c2ncn(Cc3ccccc3)c2C1=O > 76.9 µM, O=C(NC1CC1)c1ccc(COc2ccc(F)cc2)o1 > 76.9 µM, CNC(=O)CSc1nnnn1CCCOC > 76.9 µM, Cc1cc(C)c2c(=O)[nH]c(SCC(=O)Nc3ccccc3)nc2n1 > 76.9 µM, CC(C)C(NC(=O)c1cccs1)C(=O)NC1=NCCS1 (stereo not given) > 76.9 µM, CC1(C)CC(NC(=O)CCc2ccccc2)CC(C)(C)N1 > 76.9 µM, COc1ccc(CN2CCCC(C(=O)N3CCCC3)C2)cc1 (stereo not given) > 76.9 µM, Cc1ccc(CNC(=O)CNS(=O)(=O)c2cccc3nsnc23)cc1 > 76.9 µM, CCCCOC(=O)CSc1nc2c(c(=O)[nH]c(=O)n2C)n1C/C=C(\C)Cl > 76.9 µM, COC(=O)C1=C(C)N=C2SCCC(=O)N2C1c1ccc(C(=O)OC)cc1 (stereo not given) > 76.9 µM, CCSc1nnc(NC(=O)c2csc3c2CCC(C)C3)s1 (stereo not given) > 76.9 µM, CC(Sc1nnc2ccccn12)C(=O)Nc1ccc(Cl)cn1 (stereo not given) > 76.9 µM, Cc1nc2ccccc2c(=O)n1CCCn1ccnc1 > 76.9 µM, Cc1ccc2[nH]c(=O)c(-c3noc(-c4ccncc4)n3)cc2c1 > 76.9 µM, CSc1nsc(SC)c1C(=O)N1CCN(S(=O)(=O)c2ccc(C)cc2)C1C (stereo not given) > 76.9 µM, COc1ccc(NC(=O)COc2ccccc2)c(OC)c1 > 76.9 µM, c1ccc2oc(NC3=NCN(CC4CCCO4)CN3)nc2c1 (stereo not given) > 76.9 µM, Cc1c(NC(=O)C(C)OC(=O)c2cc3c4ccccc4n(C)c3s2)c(=O)n(-c2ccccc2)n1C (stereo not given) > 76.9 µM, CC1Cc2cc(/C(O)=C3/C(=O)C(=O)N(CCCN(C)C)C3c3ccncc3)ccc2O1 (stereo not given) > 76.9 µM, COC(=O)c1cc(NCc2cccs2)ccc1N1CCOCC1 > 76.9 µM, CCOc1ccc(N(CC(=O)O)S(=O)(=O)c2ccc(F)cc2)cc1 > 76.9 µM, C=CCn1c(SCc2ccc(OC)cc2)nnc1-c1cccnc1 > 76.9 µM, CCN(CC(F)(F)C(F)F)S(=O)(=O)c1ccc(NC(=O)OC)cc1 > 76.9 µM, Cc1cc2c(c(=O)o1)C1(C(=O)N(C)c3ccccc31)C(C#N)=C(N)O2 (stereo not given) > 76.9 µM, OC(c1ccccc1)C1CN(Cc2ccccc2)CCC1(O)c1ccccc1 (stereo not given) > 76.9 µM, O=C(CCCC(=O)OCC(=O)NC1CCCC1)Nc1ccccn1 > 76.9 µM, CCCCNC(=O)c1sc(=S)n2c1[nH]c(=O)c1ccccc12 > 76.9 µM, CN1CCN(C2=NC3(CCCC3)C(C#N)C(=O)N2)CC1 (stereo not given) > 76.9 µM, CC1(C)C2CCC1(C)C(NC1=NCCC1)C2 (stereo not given) > 76.9 µM, CCc1cc(-c2[nH]ncc2-c2ccc3c(c2)OCO3)c(O)cc1O > 76.9 µM, O=C(C1CCCN(S(=O)(=O)c2ccc(Cl)cc2)C1)N(Cc1cccs1)C1CC1 (stereo not given) > 76.9 µM, CCOC(=O)c1c(-c2ccncc2)csc1N > 76.9 µM, CCOCc1nnc(NC(=O)CSc2ccccc2)s1 > 76.9 µM, Cc1cc(NC(=O)CCCOc2ccc(Cl)cc2Cl)no1 > 76.9 µM, CCCN(CCC)CCCNC(=O)c1ccc2c(c1)N(CC)C(=O)c1ccccc1S2=O (stereo not given) > 76.9 µM, NC(=O)C1(c2ccccc2)CCOCC1 > 76.9 µM, CC1CCCCN1Cc1nc2c(c(=O)n(C)c(=O)n2C)n1CCCc1ccccc1 (stereo not given) > 76.9 µM, COc1ccc(OC)c(NC(=O)CN(c2ccc(OC)c(Cl)c2)S(C)(=O)=O)c1 > 76.9 µM, Cc1noc(C)c1CSc1ccc2ccccc2n1 > 76.9 µM, Cc1ccccc1Cn1ccc(NC(=O)c2cnn3c(C(F)(F)F)cc(-c4ccco4)nc23)n1 > 76.9 µM, CCC(=O)OC1CSc2nc3ccccc3n2C1 (stereo not given) > 76.9 µM, Cc1ccc(S(=O)(=O)Nc2cc(C(=O)O)ccc2N2CCCCC2)cc1 > 76.9 µM, Cc1cc(C)n(-c2nc3ccccc3c(=O)n2OCC(=O)N(C)C)n1 > 76.9 µM, COc1ccccc1-n1c(SCC(=O)N2CCOCC2)nc(O)c(Cc2ccccc2)c1=O > 76.9 µM, N#Cc1c(NC(=O)CCn2cnc3ccccc3c2=O)oc(-c2ccccc2)c1-c1ccccc1 > 76.9 µM, COc1ccc(C)cc1S(=O)(=O)N1CCCCC1 > 76.9 µM
